The other results are listed elsewhere or left out. The full chains were built here from the parent and the listed change. Inactive controls read about 0.05.
B1: TEV protease; numbered along this chain (parent)
chain: MGESLFKGPRDYNPISSSICHLTNESDGHTTSLYGIGFGPFIITNKHLFRRNNGTLVVQSLHGVFKVKDTTTLQQHLVDGRDMIIIRMPKDFPPFPQKLKFREPQREERICLVTTNFQTKSMSSMVSDTSCTFPSGDGIFWKHWIQTKDGQCGSPLVSTRDGFIVGIHSASNFTNTNNYFTSVPKNFMELLTNQEAQQWVSGWRLNADSVLWGGHKVFMVKPEEPFQPVKEATQL

Variants of: B1
Assay: raw area under fraction-flipped curve 0-4 h after induction (AUC4h, not background-subtracted), DNA-recorder readout of cleavage of the substrate (dimensionless); higher = more cleavage of the substrate by the protease variant
Conditions: temperature: 34 °C; time window: 0-4 h after rhamnose induction
Experimental: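 In vivo DNA recorder in E. coli TOP10(DE3) ΔrhaA at 34 °C. Each TEVp single-site mutant (parent TEVp 0) is paired with a single-site variant of the 7-mer TEVs (canonical ENLYFQ|S). The substrate sits between flexible linkers in a Bxb1-sfGFP-TEVs-SsrA fusion, so cleavage stabilises Bxb1 and speeds flipping of a recombination array, read by NGS. The value is the raw area under the fraction-flipped curve over 0-4 h after rhamnose induction (AUC4h), with ≥20 reads per time point. It is not background-subtracted; inactive controls average about 0.047.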
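Also: Bxb1 expression induced with 0.2% (w/v) L-rhamnose at OD600 near 0.5, cultures sampled hourly, flipped fraction per protease–substrate barcode pair counted by paired-end Illumina sequencing.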

Row | Variant | area with substrate CNLYFQS | area with substrate DNLYFQS | area with substrate GNLYFQS | area with substrate HNLYFQS | area with substrate KNLYFQS | area with substrate LNLYFQS | area with substrate NNLYFQS | area with substrate PNLYFQS | area with substrate SNLYFQS | area with substrate WNLYFQS | area with substrate YNLYFQS | area with substrate FNLYFQS | area with substrate INLYFQS | area with substrate QNLYFQS | area with substrate TNLYFQS | area with substrate MNLYFQS | area with substrate RNLYFQS | area with substrate VNLYFQS
1 | G150Q | 0.0647 | 0.0493 | 0.071 | 0.0551 | 0.0604 | 0.0617 | 0.0594 | 0.0627 | 0.0694 | 0.0436 | 0.0652 | – | – | – | – | – | – | –
2 | Q151G | 0.0691 | 0.0678 | 0.0636 | 0.0568 | 0.0673 | – | – | 0.0586 | – | 0.0495 | 0.0424 | 0.0425 | 0.0751 | 0.0653 | 0.0502 | – | – | –
3 | G153P | 0.0451 | 0.044 | 0.0482 | – | 0.0447 | – | – | 0.0379 | 0.0499 | 0.045 | – | 0.0473 | 0.0451 | – | 0.0404 | 0.0404 | 0.0539 | 0.0421
4 | S154C | 0.0933 | 0.0711 | 0.0603 | 0.0458 | 0.0734 | 0.0616 | 0.0693 | 0.0747 | 0.0731 | 0.047 | 0.0604 | – | 0.0788 | 0.0569 | 0.0348 | 0.0568 | 0.0708 | 0.0466
5 | S154F | 0.0635 | 0.0693 | – | – | – | 0.0578 | – | – | – | – | 0.0563 | 0.0451 | – | 0.0446 | 0.0579 | – | – | –
6 | S154L | 0.0674 | 0.159 | – | 0.0756 | 0.085 | 0.0639 | 0.0665 | – | – | 0.0564 | – | – | – | – | 0.061 | 0.0539 | – | –
7 | S154M | 0.0244 | 0.0696 | 0.0645 | 0.0655 | 0.0569 | 0.0637 | 0.102 | 0.0697 | – | 0.0575 | 0.0669 | – | 0.0596 | – | 0.0523 | 0.0598 | 0.0415 | –
8 | S154R | 0.0612 | 0.0704 | 0.0562 | 0.0617 | 0.0648 | 0.0654 | 0.0646 | 0.0501 | 0.0512 | 0.0549 | 0.0674 | – | 0.0716 | – | 0.0554 | 0.0306 | 0.0541 | 0.0607
9 | P155H | 0.0457 | 0.0547 | 0.0501 | 0.0483 | 0.056 | 0.045 | 0.0943 | 0.0476 | 0.0544 | 0.0523 | – | – | 0.0514 | 0.0368 | 0.0496 | 0.0484 | – | –
10 | P155N | 0.055 | 0.0535 | 0.0474 | – | 0.0507 | 0.0485 | 0.0484 | 0.0513 | 0.0413 | 0.0392 | 0.024 | 0.049 | 0.0405 | – | 0.0527 | 0.0555 | – | 0.0375
11 | P155V | 0.0591 | 0.0698 | 0.0635 | 0.0734 | – | 0.06 | 0.0573 | 0.0726 | 0.055 | 0.0573 | 0.0348 | – | 0.0621 | – | 0.0637 | – | – | 0.0755
12 | L156C | 0.0541 | 0.0766 | 0.0474 | 0.064 | 0.0614 | 0.0731 | – | 0.0575 | 0.0519 | 0.0625 | 0.0651 | – | 0.0473 | – | 0.069 | – | – | –
13 | L156G | 0.037 | 0.0619 | 0.0697 | 0.0505 | 0.0627 | 0.0471 | – | – | 0.0486 | – | 0.0783 | – | 0.0412 | – | 0.04 | 0.0496 | – | 0.0474
14 | L156S | 0.0682 | 0.0581 | – | 0.063 | – | 0.0648 | – | 0.054 | 0.054 | 0.0523 | – | 0.056 | 0.0594 | – | 0.045 | 0.0552 | – | –
15 | S158A | 0.0514 | 0.0758 | 0.0587 | 0.0637 | 0.0817 | – | – | 0.0683 | 0.0579 | – | 0.0802 | 0.076 | – | – | – | 0.0738 | 0.0544 | –
16 | S158D | 0.0556 | 0.0595 | – | 0.0692 | – | 0.0522 | 0.0523 | – | – | 0.0543 | – | 0.0433 | 0.0361 | 0.0483 | 0.0333 | – | – | –
17 | S158I | 0.0375 | 0.0345 | – | 0.05 | 0.0553 | – | – | – | – | 0.0389 | 0.0496 | – | 0.0536 | – | – | 0.0395 | – | –
18 | R160P | 0.0584 | 0.0687 | – | 0.0576 | 0.0873 | 0.0467 | – | – | 0.0586 | 0.056 | 0.0518 | – | 0.0546 | 0.0572 | 0.0576 | – | – | 0.0684
19 | D161R | 0.0515 | 0.0403 | 0.0712 | 0.065 | 0.0649 | 0.0453 | – | – | 0.0341 | – | 0.0538 | – | 0.0488 | 0.0622 | 0.0568 | – | 0.0259 | –
20 | D161S | 0.0506 | 0.0454 | 0.0561 | 0.0668 | – | 0.0614 | – | 0.0655 | 0.0705 | 0.0559 | – | – | 0.0589 | – | 0.06 | – | – | 0.0692
21 | D161Y | 0.0511 | 0.0524 | 0.0432 | 0.0634 | – | 0.0541 | 0.0712 | 0.058 | 0.0468 | 0.0589 | – | 0.0553 | – | – | 0.0597 | 0.0566 | 0.0569 | –
22 | G162A | 0.0686 | 0.0701 | 0.0655 | 0.0304 | 0.0574 | 0.0532 | – | 0.0585 | – | – | – | – | – | – | – | – | – | –
23 | G162S | 0.0579 | 0.0598 | 0.0686 | 0.0354 | 0.0643 | 0.0573 | – | 0.0537 | 0.0569 | 0.0496 | – | 0.0669 | – | – | 0.115 | – | – | –
24 | I164M | 0.0646 | 0.0768 | 0.0627 | 0.0648 | 0.0543 | 0.0596 | 0.0553 | 0.0574 | 0.0543 | 0.063 | 0.0493 | 0.0699 | 0.0573 | – | 0.0617 | 0.0587 | 0.0523 | 0.062
25 | I164N | 0.0459 | 0.0386 | 0.0473 | – | 0.0648 | – | – | – | – | 0.0658 | 0.0523 | 0.0481 | 0.0455 | – | 0.058 | – | – | 0.0568
26 | V165A | 0.0564 | 0.0461 | 0.0441 | 0.0524 | 0.0625 | 0.06 | – | – | – | 0.0458 | – | – | – | – | 0.0545 | 0.0472 | – | –
27 | V165G | 0.0527 | 0.0719 | 0.049 | 0.0541 | – | 0.0512 | – | 0.0529 | 0.0585 | 0.0528 | 0.0483 | 0.0523 | – | – | 0.0576 | 0.0601 | 0.0895 | 0.0586
28 | G166I | 0.048 | 0.0582 | – | 0.0408 | 0.039 | 0.053 | 0.0121 | 0.0514 | 0.0398 | 0.0543 | 0.0511 | – | – | – | 0.0532 | 0.0595 | – | –
29 | G166L | 0.065 | 0.0478 | 0.0697 | 0.0468 | – | – | – | 0.0368 | – | 0.0531 | 0.0543 | 0.0392 | – | 0.0509 | 0.0539 | – | – | –

Reference: the supplement of paper PMC12217912
